Assay results: paper PMC4336329 (PLoS ONE, 2015)
The whole screen tested about 310,000 compounds, of which about 14,000 (4.5%) showed an effect of 50% or more. Effects have a minus sign here. The list shows a part of the results.

target: human ether-à-go-go-related gene (hERG) potassium channel (human, UniProt Q12809); experiment: primary screen, population patch clamp on CHO cells stably expressing hERG
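Also: peak tail current of the secondary pulse compared with the same well before compound.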

human ether-à-go-go-related gene (hERG) potassium channel, sequence (Q12809 whole entry, looked up): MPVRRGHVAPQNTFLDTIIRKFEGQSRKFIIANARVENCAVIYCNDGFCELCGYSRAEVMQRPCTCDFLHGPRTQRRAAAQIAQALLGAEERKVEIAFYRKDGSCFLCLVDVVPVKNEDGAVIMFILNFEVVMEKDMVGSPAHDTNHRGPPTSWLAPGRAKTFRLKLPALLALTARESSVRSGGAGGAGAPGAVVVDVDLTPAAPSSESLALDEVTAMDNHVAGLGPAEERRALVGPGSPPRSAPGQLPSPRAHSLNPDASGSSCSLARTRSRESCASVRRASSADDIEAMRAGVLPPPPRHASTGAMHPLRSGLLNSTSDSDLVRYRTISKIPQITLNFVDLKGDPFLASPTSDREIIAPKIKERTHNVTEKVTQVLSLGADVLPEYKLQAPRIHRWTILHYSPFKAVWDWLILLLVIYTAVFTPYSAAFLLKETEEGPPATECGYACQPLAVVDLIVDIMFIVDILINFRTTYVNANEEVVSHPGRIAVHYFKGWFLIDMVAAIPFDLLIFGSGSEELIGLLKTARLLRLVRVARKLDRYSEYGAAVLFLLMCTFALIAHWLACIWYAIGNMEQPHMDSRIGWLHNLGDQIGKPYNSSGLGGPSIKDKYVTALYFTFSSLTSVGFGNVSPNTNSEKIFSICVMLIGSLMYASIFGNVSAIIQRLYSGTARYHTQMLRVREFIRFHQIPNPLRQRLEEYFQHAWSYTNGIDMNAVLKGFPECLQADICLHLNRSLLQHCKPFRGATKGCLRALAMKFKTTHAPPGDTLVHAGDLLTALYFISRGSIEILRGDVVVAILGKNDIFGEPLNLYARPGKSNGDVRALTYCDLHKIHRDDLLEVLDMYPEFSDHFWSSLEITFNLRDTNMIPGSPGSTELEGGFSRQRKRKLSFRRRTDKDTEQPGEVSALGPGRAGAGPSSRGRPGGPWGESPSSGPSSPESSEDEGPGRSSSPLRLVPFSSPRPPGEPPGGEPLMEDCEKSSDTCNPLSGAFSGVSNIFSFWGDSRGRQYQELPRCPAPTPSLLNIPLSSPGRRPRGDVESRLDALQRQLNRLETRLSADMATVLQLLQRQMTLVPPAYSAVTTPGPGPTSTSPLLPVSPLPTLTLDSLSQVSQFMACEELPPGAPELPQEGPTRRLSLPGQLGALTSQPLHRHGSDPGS

Row | SMILES | hERG current change (%, negative = inhibition) at 10uM
1 | NC(=O)c1cc(S(=O)(=O)NCc2ccc(Br)cc2)cs1 | 3.35%
2 | Cc1ccccc1OCC(=O)NC1CCCCCCC1 | -17.6%
3 | COc1ccc(/C=N/NC(=O)Cc2csc(Nc3cccc(C(F)(F)F)c3)n2)cc1C | 10.7%
4 | O=S(=O)(c1ccccc1)n1ccc(-c2cnc(-c3ccccc3)s2)n1 | 8.54%
5 | COc1cc(/C=C2/C(=N)N3C(=NC2=O)SN=C3S(=O)(=O)C(C)C)ccc1OC(=O)c1ccco1 | 10.9%
6 | COc1ccc(-c2noc(CCC(=O)N(C)c3cccc(C)c3)n2)cc1 | 2.44%
7 | COc1ccc(Cn2c(=O)[nH]c3cc(C(=O)N4CCN(c5ccccn5)CC4)ccc3c2=O)cc1 | 4.92%
8 | COCC(=O)N/N=C(\C)CC(=O)NCc1ccco1 | 21.1%
9 | O=C(O)c1ccc(-c2nnn(Cc3ccccc3F)n2)cc1 | 58.7%
10 | Nc1c(C(=O)OCC2CCCO2)c2nc3ccccc3nc2n1C1CCCC1 (stereo not shown) | -22%
11 | CN(CCOc1ccc(Cl)c(Cl)c1)Cc1ccccc1.O=C(O)C(=O)O | 23.1%
12 | O=C(Nc1ccc(C(=O)N2CCCC2)cc1)c1ccc(F)cc1Cl | 0.232%
13 | CC(C)CC(=O)Nc1cccc(C(=O)Nc2ccccc2C(=O)O)c1 | -0.202%
14 | CC(C(=O)c1ccccc1)N1C(=O)c2ccccc2C1=O (stereo not shown) | 10%
15 | CC(=O)c1cccc(NC(=O)C2=CC(c3ccc4c(c3)OCO4)=NS(=O)(=O)N2C)c1 | -8.8%
16 | Cc1ccc(NC(=O)CN(C)C(=O)c2ccc(S(=O)(=O)N(C)c3ccccc3)cc2)cc1 | 11.2%
17 | Cc1csc(OCc2ccc(C#N)cc2)n1 | -22.9%
18 | CCOc1cc(C(=O)NCc2ccco2)cc(OCC)c1OCC | -6.81%
19 | COc1ccc(-c2cc(C(=O)OCC(=O)c3cccc([N+](=O)[O-])c3)c3cc(C)ccc3n2)cc1 | -2.3%
20 | COC(=O)c1ccc(CN2CCN(Cc3ccc(F)cc3)C(CCO)C2)cc1 (stereo not shown) | 10.1%
21 | O=C(COc1ccc(Br)cc1)Nc1ccc(N2CCOCC2)cc1N1CCOCC1 | -7.56%
22 | COc1cc2[nH]c(C(=O)N(C)C3CCS(=O)(=O)C3)cc2c(OC)c1OC (stereo not shown) | 13.6%

Row | SMILES | hERG current change (%, negative = inhibition) at 10uM
23 | Cc1ccc(C)c2[nH]c(=O)c(CN(CC3CCCO3)C(=O)NC3CCCCC3)cc12 (stereo not shown) | -2.81%
24 | Cc1ccc(S(=O)(=O)N2CCOCC2)cc1C(=O)NC1CCCC(C)C1C (stereo not shown) | -25.7%
25 | O=C(COC(=O)C1CCN(c2ccc(C(F)(F)F)cn2)CC1)NCc1ccc(Cl)cc1Cl | -10.1%
26 | COc1cccc(-n2c(SCC(=O)Nc3cc(C)on3)nc3ccccc3c2=O)c1 | -4.23%
27 | CCN(C(=O)Cn1cc(C(F)(F)F)ccc1=O)c1c(N)n(Cc2ccccc2)c(=O)[nH]c1=O | 10.4%
28 | COc1cc(C)c(/C=C(\C#N)C(=O)Nc2cccc(C)c2)cc1C(C)C | 0.0709%
29 | CN(CCCNC(=O)CCC(=O)N1CCOc2ccc(Cl)cc21)Cc1ccccc1 | -64.1%
30 | CCC(=O)c1ccc(Oc2ccc(C(=O)c3ccc(C)cc3)cc2[N+](=O)[O-])cc1 | 10.1%
31 | Cc1nc(CCNC(=O)Cc2ccccc2)cs1 | 6.52%
32 | COc1ccc(OC)c(C(=O)N2CCCC(Nc3ccc(F)cc3)C2)c1 (stereo not shown) | -8.55%
33 | CCN1CCN(CCCNC(=O)c2cc3cc4ccc(OC)cc4nc3o2)CC1 | -17.1%
34 | Cc1cccc(N2CCN(C(=O)Cc3cn(C)c4ccccc34)CC2)c1C | -7.32%
35 | Br.O/C(=C\Sc1nnc(Cc2ccccc2)o1)c1ccc(Br)cc1 | 11.8%
36 | CN1C(=O)C(=Cc2ccc(Sc3ccccc3)o2)C(=O)N(C)C1=S | 20.3%
37 | CS(=O)(=O)c1ccc(C(=O)Nc2ccc(N3CCCCC3)cc2)c(Cl)c1 | 34.1%
38 | CC(C)(C)NS(=O)(=O)c1ccc(NC(=O)Cc2ccccc2[N+](=O)[O-])cc1 | 1.66%
39 | Cc1csc(SC(C)C(=O)NCc2ccc3c(c2)OCO3)n1 (stereo not shown) | -2.04%
40 | Cc1cc(S(=O)(=O)Nc2ccc(N3CCOCC3)cc2)ccc1Br | 7.38%
41 | CCOc1ccc(-n2c(SCC(=O)NC)nnc2-c2ccco2)cc1 | -27.5%
42 | COc1ccc2c(c1)c(=O)oc1c(C)c(OCc3cc(C(=O)O)oc3C)ccc12 | 22.5%
43 | O=S(=O)(NCCCN1CCOCC1)c1ccc2ccccc2c1 | 0.325%
44 | COC(=O)c1cc(S(=O)(=O)NCC2CCN(Cc3cc(C)ccc3C)CC2)c[nH]1 | -11%

Row | SMILES | hERG current change (%, negative = inhibition) at 10uM
45 | O=C1CCCCC1C(=O)c1ccccc1 (stereo not shown) | 17.3%
46 | Cl.Oc1ccc(COCc2ccccc2)c2cccnc12 | -6.99%
47 | CCCOC(=S)N/C(=N\S(=O)(=O)c1ccccc1)c1ccccc1 | 10.7%
48 | COc1ccc(-c2cn(-c3ccccc3)c(=S)[nH]2)cc1OC | 16.1%
49 | CC12CCC(=O)N1C(C(=O)Nc1ccc(Cl)c(S(=O)(=O)N3CCCCC3)c1)CS2 (stereo not shown) | -34.3%
50 | CN(C)C(=O)Oc1ccc2c(c1)O/C(=C\c1cccc(Cl)c1)C2=O | 17.9%
51 | CSc1cccc(-n2ccc(=O)c(C)c2C)c1 | 18.2%
52 | CS(=O)(=O)NNC(=O)Cn1nnc(-c2cc(C(F)(F)F)cc(C(F)(F)F)c2)n1 | 19.7%
53 | CCN(Cc1nc2ccccc2c(=O)[nH]1)C(=O)CN1C(=O)NC2(CCCCC2C)C1=O (stereo not shown) | -21.7%
54 | CC(OC(=O)CCCOc1ccccc1)C(=O)NC(N)=O (stereo not shown) | 9%
55 | CCOc1ccc(C(C)(C)C)cc1S(=O)(=O)Nc1ccncc1 | 17%
56 | CC(C)C(C(=O)NCc1ccco1)N(Cc1ccco1)C(=O)CNS(=O)(=O)c1ccc(F)cc1 (stereo not shown) | 10.9%
57 | Cn1c(=O)n(CCc2ccccc2)c(=O)c2c1nc1n2CCN1Cc1ccco1 | -55.5%
58 | COc1ccccc1NC(=O)C1CCC(CNc2c(N3CCCCC3)c(=O)c2=O)CC1 (stereo not shown) | 7.64%
59 | Fc1ccc(NC(=S)N/N=C/c2ccc(F)c(F)c2)cc1 | 13.1%
60 | CCCCN(C)CCNC(=O)CCn1nc(-c2ccc(Cl)cc2)ccc1=O | -67.1%
61 | O=C(Nc1ccc(S(=O)(=O)Nc2ncccn2)cc1)C1COc2ccccc2O1 (stereo not shown) | 11.1%
62 | C/C(=N\NC(=O)c1ccc(-n2cnnn2)cc1)c1ccc(Cl)cc1 | -9.1%
63 | CCCNC(=O)c1nnsc1Sc1ccc(Cl)cc1 | 5.23%
64 | CC(=O)Nc1ccc(/C(C)=N/NC(=O)c2ccccc2Cl)cc1 | 6.29%
65 | O=C(NCC(c1cccnc1)N1CCN(c2ccccc2F)CC1)C1CCCCC1 (stereo not shown) | -17.5%
66 | COc1ccccc1S(=O)(=O)c1c(C)cc(C)[nH]c1=O | 11%

Row | SMILES | hERG current change (%, negative = inhibition) at 10uM
67 | COc1ccc(-c2c(C#N)c(N)nc3c2c(=O)n(C)c(=O)n3C)cc1 | -0.268%
68 | Brc1cccc(-c2cnco2)c1 | 8.78%
69 | Cc1cc(C)c(S(=O)(=O)Nc2ccc(Cl)cn2)c(C)c1 | 9.35%
70 | COc1cccc2sc(Nc3nc(-c4ccccn4)cs3)nc12 | 21.4%
71 | CCCCC1OC23CCCCC2C(C#N)(C#N)C1(C#N)C(=N)O3 (stereo not shown) | 3.76%
72 | COc1ccc(C(=O)COC(=O)CNC(=O)c2ccc(Cl)cc2Cl)c(OC)c1 | 2.46%
73 | COCCN1C(=O)N[C@@H](c2ccccc2)C(C(=O)OC)=C1C | 12.6%
74 | CC(=O)c1ccc(NC(=O)c2ccc(C)c(S(=O)(=O)N3CCOCC3)c2)cc1 | 2.2%
75 | O=C(N/C(=C/c1ccccc1)C(=O)N1CCCCC1)c1ccc(Br)o1 | -7.64%
76 | Cc1c(C(=O)Nc2ccccn2)oc2c(Cl)cccc12 | -3.36%
77 | CCC(C)c1ccc(NC(=S)NC(C)C2CCCO2)cc1 (stereo not shown) | -6.84%
78 | S=C(Nc1ccc(Br)cc1)N1CCCC1 | 2.38%
79 | CCCNC(=O)C(Cc1ccccc1C)NC(=O)c1ccc(C#N)cc1 (stereo not shown) | 3.89%
80 | CCn1nc(C)c(CNC(=O)CC2C(=O)NCCN2CC(C)C)c1C (stereo not shown) | 11.7%
81 | O=C(NCCCN1CCOCC1)c1ccc(CS(=O)(=O)Cc2ccc(Cl)cc2)o1 | 4.4%
82 | COc1ccc(C2CC(=O)c3sc(N)nc3C2)cc1 (stereo not shown) | 2.43%
83 | COc1ccc(N2C(N)=NC(N)=NC2(C)C)cc1.Cl | 2.62%
84 | COc1cc(/C=N/N=C(/C(=O)c2ccccc2)c2ccccc2)cc(OC)c1O | 2.28%
85 | Cc1onc(-c2ccccc2Cl)c1C(=O)N1CC(C)CC(C)C1 (stereo not shown) | 7.96%
86 | N#Cc1ccc(C(=O)N2CCN(c3ncccn3)CC2)cc1 | -18.3%
87 | O=C(CSc1ccccc1)NC(=O)NCc1ccccc1 | 5.87%
88 | Cc1cc(-c2nnc(SCC(=O)Nc3ccccc3F)n2N)n[nH]1 | 13.8%
